Out of some 110,000 compounds screened, about 230 (0.21%) showed an effect of 50% or more. The list shows a part of the results.
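Note: 30 min substrate incubation versus DMSO and 10 µM JCP410 controls.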

This assay deals with DPAP1 (Plasmodium falciparum, UniProt Q8IIJ9). Kind of assay: primary screen, percent inhibition; read by cleavage of a fluorogenic dipeptide substrate; higher = more effect of the substance. Also noted: species or system P. falciparum D10 trophozoite lysates; single well.
DPAP1, sequence (Q8IIJ9 whole entry, looked up): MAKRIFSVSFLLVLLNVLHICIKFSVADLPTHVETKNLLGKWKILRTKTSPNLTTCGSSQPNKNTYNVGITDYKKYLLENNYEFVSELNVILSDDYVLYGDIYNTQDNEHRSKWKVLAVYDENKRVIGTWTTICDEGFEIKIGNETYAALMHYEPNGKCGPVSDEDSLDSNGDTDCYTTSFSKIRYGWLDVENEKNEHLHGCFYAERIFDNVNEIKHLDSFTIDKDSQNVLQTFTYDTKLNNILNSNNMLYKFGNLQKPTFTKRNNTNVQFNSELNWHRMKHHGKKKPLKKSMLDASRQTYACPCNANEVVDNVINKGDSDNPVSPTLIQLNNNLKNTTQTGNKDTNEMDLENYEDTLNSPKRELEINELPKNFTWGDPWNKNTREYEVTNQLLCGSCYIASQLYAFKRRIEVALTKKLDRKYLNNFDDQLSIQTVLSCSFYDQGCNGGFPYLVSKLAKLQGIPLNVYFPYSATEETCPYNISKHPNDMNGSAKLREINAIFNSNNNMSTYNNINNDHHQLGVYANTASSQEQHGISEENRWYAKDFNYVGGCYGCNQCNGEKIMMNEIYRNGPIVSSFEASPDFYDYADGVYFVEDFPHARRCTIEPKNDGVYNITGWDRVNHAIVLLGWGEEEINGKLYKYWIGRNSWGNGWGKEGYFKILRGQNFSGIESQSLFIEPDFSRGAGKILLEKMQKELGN
As for `CC1CCCC(C)N1CCNC(=O)c1cc2ccc3cccnc3c2[nH]1` (centres unmarked), the “% Inhibition @ 10 uM” value is recorded as 4.44%. Regarding `Cc1ccc(CC(=O)N2CCC(c3nc(O)c4nnn(Cc5ccccc5)c4n3)CC2)cc1`, the “% Inhibition @ 10 uM” value was -0.551%.

Regarding `C=CCn1c(=N)c(C(=O)NCc2ccccc2)cc2c(=O)n3ccccc3nc21`, the “% Inhibition @ 10 uM” value worked out at 0.279%.

With `N=Cc1cc(-c2ccccc2)oc1S`, the “% Inhibition @ 10 uM” value is 36.3%. With `COc1cc(/C=C2\SC(=O)N(CC(=O)Nc3ccc(C)cc3)C2=O)ccc1O` the figure was 1.52%; with `Cc1ccc2c(c1)-c1c(cnn1CC(=O)N1CCN(Cc3ccccc3)CC1)CO2`, -0.563%; with `Cc1c(Cl)cccc1NC(=O)c1ccc(Cl)cc1`, -5.65%. With `CSCCC1Oc2ccccc2C2CC(c3ccccc3O)=NN12` (centres unmarked) the figure was 3.39%; with `CCOC(=O)C1=CN(C(C)C)C=C(C(=O)OCC)C1c1ccccc1OC(C)C`, -1.48%; with `Nc1ccc2nc(SCC(=O)Nc3ccccc3C(F)(F)F)sc2c1`, -0.99%.

In the case of `COc1ccccc1CNC(=O)C1CCCN(c2ncnc3onc(-c4ccc(F)cc4)c23)C1` (centres unmarked), the “% Inhibition @ 10 uM” value was -2.53%.

As for `COc1ccc(C2C(C#N)=C(N)OC3=C2C(=O)CC(C)(C)C3)cc1OC` (centres unmarked), the “% Inhibition @ 10 uM” value amounted to 4.08%.

`COc1ccc(CCn2c(=O)[nH]c3ncccc3c2=O)cc1OC`: the “% Inhibition @ 10 uM” value amounted to 3.32%. The same measure for `Nc1nonc1-c1nc2ccccc2n1CC(=O)NCCC1=CCCCC1`: -1.11%; for `O=C1CC(c2ccccc2)CC(=O)C1=CNCCN1CCNCC1` (centres unmarked): 2.18%. Turning to `Cc1ccccc1CS(=O)(=O)C[C@H](NC(=O)N1CCOCC1)C(=O)NC(C)CN(C)C` (some centres unmarked), the “% Inhibition @ 10 uM” value was determined as 1.15%. The same measure for `COc1ccc(CCC(C)NCCN2CCCCC2)cc1` (centres unmarked): 2.1%. Regarding `CCn1cc(CN(C)C(=O)Nc2ccc(Cl)cc2)cn1`, the “% Inhibition @ 10 uM” value was found to be 9.62%. For `COc1ccc(C2C(C#N)=C(N)Oc3c2c(=O)n(C)c(=O)n3C)c(OC)c1OC` (centres unmarked), the “% Inhibition @ 10 uM” value was -7.42%. The same measure for `CCC(C(=O)NCc1ccccc1)n1nc(C)c2c(C)n(-c3ccccc3)nc2c1=O` (centres unmarked): -6.36%; for `CCOCCCn1c(SCC(=O)NCC2CCCO2)nc2c(sc3ccccc32)c1=O` (centres unmarked): 5.27%.

For `O=C(Nc1ccccc1F)c1ccc(C(=O)Nc2ccccc2F)cc1`, the “% Inhibition @ 10 uM” value was 5.24%. The same measure for `Cn1c(NC(=O)C2c3ccccc3Oc3ccccc32)cc(=O)n(C)c1=O`: -3.03%. The same measure for `CCC(=O)/N=C1\SC2CS(=O)(=O)CC2N1C(C)c1ccccc1` (centres unmarked): -1.15%; for `CC(C)c1ccc(/C=C2\C(=N)N3N=C(N4CCOCC4)SC3=NC2=O)cc1`: -1.66%. `COCCOC(=O)C1=C(C)NC(=O)CC1c1ccccc1Cl` (centres unmarked): the “% Inhibition @ 10 uM” value is listed as 5.94%. The same measure for `Cc1cc(NC(=O)c2ccc(Br)o2)no1`: -8.86%; for `CCc1ccc(CNC(=O)c2coc(=O)c3ccccc23)cc1`: -3.31%; for `CS(=O)(=O)n1nc(-c2ccco2)nc1NCc1cccs1`: -3.24%. The same measure for `CC[C@H](NC(=O)[C@H](Cc1ccc(Br)s1)NC(=O)OCc1ccccc1)C(=O)c1nc2ccccc2o1`: -3.04%. On to `CCOc1ccc(NC(=O)c2cccc3ccccc23)cc1`, for which the “% Inhibition @ 10 uM” value is reported as -5.89%. With `CCN(CC)CC/N=C(N)/C(C#N)=C/c1[nH]c2ccccc2c1O`, the “% Inhibition @ 10 uM” value is on record as -6.87%.

As to `COc1cccc(OC/C(O)=C(\C#N)c2nc3ccccc3[nH]2)c1`, the “% Inhibition @ 10 uM” value is -6.04%. The same measure for `Cc1nnc(-c2ccc(Cl)cc2)o1`: 3.32%; for `Cc1ccc(CNC(=O)CN2C(=O)c3ccccc3S2(=O)=O)cc1`: 0.826%; for `CCOC(=O)C(C#N)c1ncccc1[N+](=O)[O-]` (centres unmarked): 1.87%.

In the case of `COCC(=O)NCCSc1c(-c2ccc(Br)cc2)[nH]c2ccccc12`, the “% Inhibition @ 10 uM” value came to 2.64%. With `COc1cc(C(=O)Nc2cc(F)ccc2F)ccc1OC(F)F` the figure was 0.709%; with `Cc1cc(C)nc(SCCC(=O)Nc2ccc(Cl)cc2)n1`, 0.145%. For `CCO/C(O)=C1/C(C)=Nc2ncnn2C1c1ccc(C(=O)OC)cc1` (centres unmarked), the “% Inhibition @ 10 uM” value is reported as -3.37%. The same measure for `CCCc1nc(N)c(C#N)c(-c2ccccc2)c1CC`: -0.631%.

For the molecule `COc1ccc(-c2cc(C(=O)Nc3sc4c(c3C#N)CCCC4)no2)cc1`, the “% Inhibition @ 10 uM” value is -4.07%. The same measure for `CC1CCCC(N2CCN(Cc3cccc(Cl)c3)CC2)C1` (centres unmarked): 1.81%; for `COc1ccc(/C=C(\C#N)c2nc(-c3ccc(C)cc3C)cs2)cc1`: 1.08%. With `CC(C)CC(C1=C(O)CCCC1=O)C1=C(O)CCCC1=O` the figure was 14.4%; with `COc1ccc(CN2CCCC2)c(C)c1C`, 0.472%. The same measure for `Cc1ccc(/C=C2/SC(Nc3ccccc3O)=NC2=O)cc1`: 3.1%; for `O=C(CN1C(=O)c2ccccc2Sc2ncccc21)NCc1ccccn1`: -7.87%; for `Cc1ccccc1S(=O)(=O)NC1OC(=O)C(Br)=C1Br` (centres unmarked): 6.42%. Regarding `COc1ccc(C(=O)N/C(=C/c2ccc(-c3ccc(Cl)cc3)o2)C(=O)N(C)C)cc1`, the “% Inhibition @ 10 uM” value is -0.178%.

The values are drawn from PMC6919601, “Identification of Plasmodium dipeptidyl aminopeptidase allosteric inhibitors by high throughput screening” (PLoS ONE, 2019).
